From PubChem BioAssay (NCI) come the findings set out here.

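96-well plates; 48 h exposure; 5 concentrations. Endpoints by linear interpolation between flanking doses. Not reached: highest tested concentration assigned. GI50 marks 50% less growth.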 For part of its entries the source gives two or more results. They are shown here; other results are not. The source may hold further records. For some of these results: Results that share an entry are repeats (runs, samples, wells, individuals or studies). A tag in brackets gives the origin of a value. The letters are not those of the source and start again with each entry.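 The concentration for full growth arrest is given as TGI.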 For some of these results: The tests behind the records often covered other concentration ranges, which the source does not state; a value can be the end of its range.

Some test systems named below: HL-60(TB) leukemia; K-562 leukemia; SR leukemia; CCRF-CEM leukemia.
Assay in all cases: growth of human tumour cells (NCI), 48 h

As to `Cc1ccc(S(=O)(=O)SC/C=C\CSS(=O)(=O)c2ccc(C)cc2)cc1`, the TGI with HL-60(TB) leukemia was 2.49 µM [sample A, mean of 3 tests] and 59.9 µM [sample B, 1 test]; in the assay with SR leukemia, 3.33 µM [sample A, mean of 3 tests] and 57.7 µM [sample B, 1 test]. In addition, the GI50 in the assay with K-562 leukemia was 190 nM [sample A, mean of 4 tests] and 20.6 µM [sample B, 1 test].

For `CC1CC(C)CC(C)C(O)/C(C#N)=C/C=C/CC(C2CCCC2C(=O)O)OC(=O)CC(O)C(C)C1` (centres undefined), the TGI in the assay on CCRF-CEM leukemia is 174 nM and 2.83 µM.
